Test results taken from the supplement of paper PMC3334620.
Over roughly 33,000 sequences, “E-score (-0.5 to 0.5)” has its median near -0.04; the highest 2% begin near 0.36. The list shows a part of the results.

target: T1, Hmlalpha2 (UniProt P0CY09); test: PBM E-score (8-mer binding enrichment) (E-score (-0.5 to 0.5)); higher = stronger / more preferred TF binding; most listed sequences are background and not binding sites; details: protein concentration: 200 nM; construct: GST-full length
T1 sequence: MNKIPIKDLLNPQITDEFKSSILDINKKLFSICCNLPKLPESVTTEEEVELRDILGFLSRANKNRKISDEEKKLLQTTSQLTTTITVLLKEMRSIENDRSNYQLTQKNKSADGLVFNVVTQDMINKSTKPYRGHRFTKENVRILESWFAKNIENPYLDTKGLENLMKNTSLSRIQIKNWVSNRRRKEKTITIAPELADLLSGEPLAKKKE
In short: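 E-scores (a modified Wilcoxon-Mann-Whitney statistic) were assigned by the Universal PBM Analysis Suite to every ungapped eight-base word pooled with its reverse complement. The input came from universal all-10-mer Agilent arrays made double-stranded by primer extension and probed with GST-tagged yeast transcription factors at about 100-200 nM. Fluorescent anti-GST detected bound protein, and masliner normalised the scans.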

Row | Sequence | PBM E-score
1 | AGAATGGG | -0.307
2 | GGCCGAAA | -0.141
3 | CTCCTTGC | -0.206
4 | AACGAAGA | 0.0512
5 | GCGGTAAC | 0.0897
6 | AAGATCGG | -0.222
7 | AAAACGTG | 0.19
8 | GCCGCGCA | -0.229
9 | ACTCAGGA | -0.0372
10 | GGCCGCAC | -0.236
11 | TCGTAACA | 0.246
12 | GATGTAAA | 0.433
13 | AATCCCGT | 0.107
14 | ATTACGGA | 0.144
15 | GGAAAAGA | -0.11
16 | AGGATCTA | -0.194
17 | CCCTTAGC | -0.314
18 | CACTAAAA | 0.183
19 | CGTTAAAC | 0.278
20 | TATGATCA | 0.0587
21 | GATCCGAA | -0.187
22 | AGAGGTAA | 0.0281

Row | Sequence | PBM E-score
23 | AGGGAAAC | -0.19
24 | ATGGAACA | -0.00034
25 | AAAGGTAA | 0.154
26 | ATAACAAG | 0.352
27 | CCTACAGG | -0.246
28 | CCAGCCCG | -0.378
29 | TCTTTCCA | -0.189
30 | CTCCGGAA | -0.159
31 | ACTATCCG | 0.0341
32 | GACTACGC | 0.0838
33 | ATATTTGG | -0.0343
34 | CGATGGAC | 0.0281
35 | AATTCAAC | 0.21
36 | GGGCAGAC | -0.35
37 | CACCGGCC | -0.228
38 | CTCACTGA | -0.208
39 | AATCGGCA | -0.103
40 | CAAAAGAG | -0.199
41 | GGCAGTGA | -0.211
42 | AAAAGTTA | 0.181
43 | GCGTACGC | 0.095
44 | ACTTTCGA | -0.0861

Row | Sequence | PBM E-score
45 | ACACTCAT | 0.23
46 | ACGAAGTC | -0.0726
47 | GCGGCCGC | -0.0941
48 | ACGAAAGG | 0.134
49 | CATGCCCA | -0.146
50 | CCCTAATC | -0.301
51 | ATAAACGA | 0.0891
52 | AGCGTGTG | 0.249
53 | CAACGACG | 0.0642
54 | ACTCTAGA | -0.0977
55 | ATCTTGGA | -0.077
56 | CGAGACAC | -0.108
57 | GTTGTTTA | 0.34
58 | AGGCCAAC | 0.046
59 | GCATGGAC | 0.0576
60 | CTGAATCA | 0.0147
61 | CAGACCGG | -0.159
62 | ATTGATGC | -0.0476
63 | GCATAACA | 0.307
64 | CGATCGAG | -0.0611
65 | ATATAAAA | 0.191
66 | AGAGGCCG | -0.256

Row | Sequence | PBM E-score
67 | CCGGCACA | -0.211
68 | ACTTATCT | 0.0275
69 | ACGGTTTA | 0.0131
70 | GCTTTTAC | 0.299
71 | GTGAACGA | 0.0671
72 | CACGAGAA | 0.0514
73 | GCGGTTAA | 0.0547
74 | GACCTAGC | -0.0413
75 | CCATCGGA | -0.288
76 | CTCGTGAA | 0.0708
77 | CGTCAGAC | -0.137
78 | AGATTTTC | 0.00766
79 | CACGGCAG | -0.037
80 | GTCTTTTA | 0.112
81 | CGTCCGAA | -0.0411
82 | AACGGCGC | -0.255
83 | AACGTAAA | 0.325
84 | ATAGGTCC | 0.0522
85 | ATGATGTG | 0.0311
86 | GCAAGTGC | -0.147
